Experimental findings from a collection of fitness landscapes (doi:10.1038/s41467-024-54723-y) are described below.

Over roughly 18,000 sequences, “TetR repression strength (sort-seq, GFP reporter)” has its median near 0.23; the highest 2% begin near 0.68. This is one part of the list.

UniProt P04483, sequence (P04483 whole entry): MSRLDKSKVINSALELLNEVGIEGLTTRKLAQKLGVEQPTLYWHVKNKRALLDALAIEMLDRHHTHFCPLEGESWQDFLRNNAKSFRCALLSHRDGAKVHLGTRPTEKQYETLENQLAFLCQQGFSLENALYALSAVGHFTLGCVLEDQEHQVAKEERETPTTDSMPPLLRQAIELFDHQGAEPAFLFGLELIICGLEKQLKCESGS

This assay addresses TetR (class B, Tn10) (UniProt P04483). The assay can be described thus: TetR repression strength (sort-seq, GFP reporter) (relative to tetO2 = 1); higher = stronger repression. The settings on record: E. coli. The procedure, abridged:
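Repression strength is the top bin index plus one minus the read-weighted mean bin, relative to the unaltered operator's value. A low-copy library in E. coli SIG10-MAX randomized eight operator positions between a constitutive promoter and sfGFP, with TetR expressed constitutively; cells grew 5 h at 37 °C in LB with 50 µg/mL chloramphenicol and 10^6 were FACS-sorted into 13 bins that were each Illumina-sequenced. Three independent transformations were averaged, keeping only members with ≥30 reads in all replicates and CV ≤0.5.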
Take TCCCCAAGAGTGGAGGAGA: the TetR repression strength came to 0.0159.

TCCCACGTAGTAGTGGAGA came in with a TetR repression strength of 0.0545.

Sequence TCCCATGGAGTAAACGAGA yielded a TetR repression strength of 0.441.

On to TCCCCGGAAGTAGCAGAGA, for which the TetR repression strength stood at 0.0779.

Turning to TCCCGCTAAGTCCGAGAGA, the TetR repression strength was 0.232.

As to TCCCCCGGAGTGAGTGAGA, the TetR repression strength turned out to be 0.235.

Take TCCCTGAGAGTTGCAGAGA: the TetR repression strength was 0.332.

In turn, TCCCAGCGAGTTCACGAGA displayed a TetR repression strength of 0.0968.

As for TCCCTTTCAGTTTAAGAGA, the TetR repression strength amounted to 0.398.

For the sequence TCCCGTATAGTCTTTGAGA, the TetR repression strength was found to be 0.0376.

For TCCCCGCGAGTCTGCGAGA, the TetR repression strength was found to be 0.207.

For the sequence TCCCGGTGAGTGAGAGAGA, the TetR repression strength was found to be 0.484.

Sequence TCCCGTAGAGTAGGGGAGA yielded a TetR repression strength of 0.081.

Sequence TCCCGAGGAGTAAGTGAGA gave a TetR repression strength of 0.204.

TCCCTAGGAGTCGGTGAGA returned a TetR repression strength of 0.203.

TCCCCATAAGTACGGGAGA gave a TetR repression strength of 0.084.

The sequence TCCCTTAGAGTTGGTGAGA displayed a TetR repression strength of 0.266.

TCCCATGCAGTTCTAGAGA: the TetR repression strength was 0.302.

In turn, TCCCCACTAGTTTCTGAGA had a TetR repression strength of 0.485.

Turning to TCCCGGGTAGTTAGAGAGA, the TetR repression strength is 0.113.

The sequence TCCCATGAAGTTGACGAGA registered a TetR repression strength of 0.186.

In turn, TCCCGAGGAGTCAGTGAGA gave a TetR repression strength of 0.247.

In the case of TCCCGTTTAGTAGTAGAGA, the TetR repression strength was found to be 0.27.

As for TCCCGAACAGTGCATGAGA, the TetR repression strength was determined as 0.373.

For TCCCTTCTAGTCTGTGAGA, the TetR repression strength is 0.345.

Consider TCCCCTTTAGTCAGGGAGA, for which the TetR repression strength is 0.104.

In turn, TCCCGTTTAGTTGGTGAGA displayed a TetR repression strength of 0.139.

Regarding TCCCACGGAGTCGCAGAGA, the TetR repression strength worked out at 0.272.

TCCCCAACAGTGAGAGAGA gave a TetR repression strength of 0.344.

As to TCCCCGGGAGTATGAGAGA, the TetR repression strength came to 0.371.

The sequence TCCCATACAGTTCGAGAGA had a TetR repression strength of 0.265.

As for TCCCTTAAAGTACATGAGA, the TetR repression strength came out at 0.433.

For the sequence TCCCCGTAAGTGAGGGAGA, the TetR repression strength was determined as 0.0939.

TCCCTGAAAGTCTGCGAGA came in with a TetR repression strength of 0.134.

Sequence TCCCATAGAGTTCCAGAGA had a TetR repression strength of 0.374.

In the case of TCCCGAGTAGTGCCCGAGA, the TetR repression strength is 0.147.

For TCCCTAATAGTGCTGGAGA, the TetR repression strength turned out to be 0.387.

With TCCCCTATAGTCCATGAGA, the TetR repression strength was 0.207.

TCCCTGGAAGTGGGGGAGA: the TetR repression strength was 0.208.

In the case of TCCCTATTAGTTCGAGAGA, the TetR repression strength came out at 0.135.

Regarding TCCCGGTAAGTAACAGAGA, the TetR repression strength was found to be 0.145.

Turning to TCCCCGATAGTCGCCGAGA, the TetR repression strength is 0.184.

As to TCCCGGTCAGTGTGTGAGA, the TetR repression strength amounted to 0.185.

TCCCGGGTAGTGCAGGAGA gave a TetR repression strength of 0.194.

The sequence TCCCTATGAGTGAGCGAGA yielded a TetR repression strength of 0.278.

Consider TCCCACTGAGTACATGAGA, for which the TetR repression strength was found to be 0.341.

On to TCCCAACGAGTCCTAGAGA, for which the TetR repression strength was determined as 0.407.

For the sequence TCCCTCAGAGTGTTAGAGA, the TetR repression strength is 0.248.

TCCCAAACAGTACGGGAGA yielded a TetR repression strength of 0.12.

Take TCCCGACAAGTGGGCGAGA: the TetR repression strength worked out at 0.152.

Sequence TCCCGGTAAGTCCCCGAGA returned a TetR repression strength of 0.153.

As for TCCCGGTGAGTATAGGAGA, the TetR repression strength turned out to be 0.138.

The sequence TCCCCATCAGTTCCTGAGA gave a TetR repression strength of 0.721.

TCCCGAAAAGTGGTAGAGA came in with a TetR repression strength of 0.151.

The sequence TCCCTGGGAGTTGATGAGA had a TetR repression strength of 0.227.

With TCCCTTTAAGTCGGCGAGA, the TetR repression strength worked out at 0.391.

TCCCAGTGAGTTGGCGAGA gave a TetR repression strength of 0.296.

For the sequence TCCCGTAGAGTGGATGAGA, the TetR repression strength is 0.147.

In turn, TCCCAATCAGTAGATGAGA came in with a TetR repression strength of 0.373.

For the sequence TCCCTACGAGTGGGCGAGA, the TetR repression strength is 0.164.

In turn, TCCCACAGAGTACCCGAGA registered a TetR repression strength of 0.222.

TCCCAATCAGTCAAAGAGA came in with a TetR repression strength of 0.676.

Sequence TCCCAATTAGTCGCTGAGA gave a TetR repression strength of 0.203.

The sequence TCCCCGACAGTTCGCGAGA showed a TetR repression strength of 0.222.

TCCCGGAAAGTGTACGAGA returned a TetR repression strength of 0.141.

TCCCGTTGAGTTTGGGAGA showed a TetR repression strength of 0.09.

Consider TCCCGGCCAGTAGGAGAGA, for which the TetR repression strength is 0.194.

For TCCCAGATAGTATGCGAGA, the TetR repression strength amounted to 0.373.

Regarding TCCCATGTAGTTTTGGAGA, the TetR repression strength was 0.361.

For the sequence TCCCACGTAGTTTTAGAGA, the TetR repression strength is 0.398.

Sequence TCCCCTGCAGTTGCCGAGA had a TetR repression strength of 0.263.

Sequence TCCCTAGTAGTCCCCGAGA yielded a TetR repression strength of 0.147.

With TCCCTAGGAGTGCCGGAGA, the TetR repression strength was determined as 0.331.

TCCCGCCAAGTCGTGGAGA displayed a TetR repression strength of 0.13.

In the case of TCCCGTATAGTTTAAGAGA, the TetR repression strength is 0.538.

TCCCCATTAGTGATGGAGA gave a TetR repression strength of 0.153.

Turning to TCCCTACAAGTCCCGGAGA, the TetR repression strength came to 0.221.

In turn, TCCCGCTTAGTCGAGGAGA registered a TetR repression strength of 0.162.

As to TCCCTTTGAGTGCTGGAGA, the TetR repression strength was found to be 0.251.

Sequence TCCCCGAGAGTCCTAGAGA gave a TetR repression strength of 0.235.

TCCCGTATAGTGTGTGAGA registered a TetR repression strength of 0.0308.

In turn, TCCCGTACAGTCTCGGAGA had a TetR repression strength of 0.254.

Regarding TCCCAAGGAGTTGGGGAGA, the TetR repression strength was found to be 0.0765.

TCCCTTGAAGTGTGGGAGA returned a TetR repression strength of 0.196.

TCCCCATTAGTGTACGAGA gave a TetR repression strength of 0.425.

Regarding TCCCTTTGAGTCATGGAGA, the TetR repression strength is 0.194.

In turn, TCCCCGAAAGTAACAGAGA had a TetR repression strength of 0.211.

In turn, TCCCAATGAGTTTGCGAGA had a TetR repression strength of 0.21.

For TCCCCGGTAGTACTCGAGA, the TetR repression strength stood at 0.199.

TCCCTCTAAGTCTATGAGA: the TetR repression strength is 0.285.

For TCCCAGGGAGTTCGGGAGA, the TetR repression strength stood at 0.289.

As for TCCCTGCAAGTGGTGGAGA, the TetR repression strength is 0.426.

TCCCTTTCAGTAGTGGAGA: the TetR repression strength was 0.249.

Consider TCCCTTGAAGTGGCTGAGA, for which the TetR repression strength was determined as 0.373.

Turning to TCCCTATCAGTGTTCGAGA, the TetR repression strength was 0.777.

TCCCCGAGAGTATAGGAGA: the TetR repression strength is 0.383.

TCCCTAAGAGTCTTGGAGA displayed a TetR repression strength of 0.101.

Turning to TCCCCGGGAGTCAAGGAGA, the TetR repression strength came out at 0.295.

Consider TCCCTTATAGTTACGGAGA, for which the TetR repression strength amounted to 0.166.

Consider TCCCATGAAGTGCCAGAGA, for which the TetR repression strength is 0.228.

In the case of TCCCATTAAGTGTGCGAGA, the TetR repression strength is 0.23.

Sequence TCCCTTTGAGTTATAGAGA had a TetR repression strength of 0.256.
